# Laboratory results taken from PubChem BioAssay AID504332 (National Center for Advancing Translational Sciences (NCATS), 2011).
# The whole screen tested about 350,000 compounds, of which about 31,000 (8.9%) were called active. Inconclusive means that the source gave no clear call. Such entries were picked first, then a sample of the others. Calls come from the whole dose curve; as a rule, active = well fitted inhibition curve with a large enough effect; inconclusive = small, poorly fitted or top-dose-only effect; inactive = no such curve, though single readings can be large or run the other way. Where the call is inconclusive, the potency comes from a doubtful curve fit.
# Molecular target: Histone-lysine N-methyltransferase EHMT2 (Homo sapiens) (UniProt Q96KQ7)
# UniProt Q96KQ7, sequence (Q96KQ7 whole entry, looked up): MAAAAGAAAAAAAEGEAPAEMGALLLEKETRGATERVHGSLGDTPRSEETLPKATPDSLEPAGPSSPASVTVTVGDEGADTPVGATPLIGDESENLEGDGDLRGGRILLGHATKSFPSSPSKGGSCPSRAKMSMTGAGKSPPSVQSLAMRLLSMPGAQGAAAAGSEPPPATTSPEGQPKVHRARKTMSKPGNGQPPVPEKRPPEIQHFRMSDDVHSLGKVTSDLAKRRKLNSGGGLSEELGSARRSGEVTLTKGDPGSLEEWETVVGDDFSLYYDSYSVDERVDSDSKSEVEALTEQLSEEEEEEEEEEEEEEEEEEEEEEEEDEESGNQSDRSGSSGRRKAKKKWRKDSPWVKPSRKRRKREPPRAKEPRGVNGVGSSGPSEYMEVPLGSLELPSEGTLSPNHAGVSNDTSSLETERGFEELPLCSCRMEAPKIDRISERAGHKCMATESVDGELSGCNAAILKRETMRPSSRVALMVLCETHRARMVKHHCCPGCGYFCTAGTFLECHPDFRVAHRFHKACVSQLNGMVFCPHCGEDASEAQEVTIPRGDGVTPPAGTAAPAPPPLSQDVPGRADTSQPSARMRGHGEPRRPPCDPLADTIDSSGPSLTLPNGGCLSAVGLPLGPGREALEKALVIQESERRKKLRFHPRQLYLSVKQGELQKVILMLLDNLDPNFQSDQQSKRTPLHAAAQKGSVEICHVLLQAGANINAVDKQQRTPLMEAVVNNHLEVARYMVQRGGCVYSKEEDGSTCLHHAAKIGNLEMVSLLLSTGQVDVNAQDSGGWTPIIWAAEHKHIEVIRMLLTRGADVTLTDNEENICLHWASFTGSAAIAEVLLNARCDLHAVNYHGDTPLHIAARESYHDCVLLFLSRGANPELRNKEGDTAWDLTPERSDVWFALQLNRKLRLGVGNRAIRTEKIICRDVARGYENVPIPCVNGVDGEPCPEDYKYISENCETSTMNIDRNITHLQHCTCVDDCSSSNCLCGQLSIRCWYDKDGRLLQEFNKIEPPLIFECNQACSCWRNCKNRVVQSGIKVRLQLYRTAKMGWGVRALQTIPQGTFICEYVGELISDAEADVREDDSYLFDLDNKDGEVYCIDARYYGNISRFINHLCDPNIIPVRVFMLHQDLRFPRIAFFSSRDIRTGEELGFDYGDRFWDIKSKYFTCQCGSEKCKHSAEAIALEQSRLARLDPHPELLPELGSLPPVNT
# Experiment: qHTS Assay for Inhibitors of Histone Lysine Methyltransferase G9a; note: nearly all actives have a fitted effect of over 75% in size
# Conditions: G9a H3K9 monomethylation, AlphaScreen, 2 h; activity, negative = inhibition: at 59 µM (top of the series) unless noted
# Summary of the method: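 Methyltransferase reactions run at room temperature for 2 h (20 nM enzyme, 500 nM biotin-H3K9 peptide, 20 uM SAM) after a 15 min compound preincubation; product detected by AlphaScreen beads and anti-H3K9me1 antibody.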
# % is set by controls: 0 for no effect and ±100 for the full control effect; potency is the fitted concentration of half-maximal effect; tags give direction and shape of the fitted curve.
Compound,Potency,"activity, negative = inhibition"
N#CC1=C2C=CC=CN2CC1=O,active: 3.98 µM,
Cc1cccc(C(=O)NC2C(=O)NNC2c2ccc(Cl)cc2)c1 (centres undefined),active: 15.8 µM,
C=CCn1c(SCC(=O)N2CCN(c3ccc(F)cc3)CC2)nnc1-c1ccco1,"inconclusive: 79.4 µM [inhibitor, single point]",
O=C(c1cc(COc2cccc3cnccc23)on1)N1CCC(c2ccccc2Cl)C1 (centres undefined),"inconclusive: 89.1 µM [inhibitor, single point]",
CN1CCN(S(=O)(=O)c2ccc(N3CCN(C(c4ccccc4)c4ccccc4)CC3)nc2)CC1,active: 25.1 µM,
Cc1ccc(S(=O)(=O)Nc2cc(=O)[nH]c(SCC(=O)Nc3ccccc3C(F)(F)F)n2)cc1,"inconclusive: 89.1 µM [inhibitor, single point]",
COc1cc(C(=O)NCCSc2c(-c3ccccc3)[nH]c3ccccc23)cc(OC)c1OC,,inactive: -6.57%
N#CC1=C(N)SC(N)=C(C#N)C1CCc1ccccc1,"inconclusive: 1.41 µM [inhibitor, full curve, poor fit]",
Cc1c(C(C)NC(=O)c2ccc3nc(Cc4ccccc4F)oc3c2)cnn1C (centres undefined),"inconclusive: 89.1 µM [inhibitor, single point]",
CC(C)(C)c1ccc(OCC(=O)Nc2c(C(=O)c3ccc(F)cc3)oc3ccccc23)cc1,,inactive: 7.84%
CC(Cc1n[nH]c(=S)n1N)c1ccccc1 (centres undefined),active: 7.94 µM,
O=C(CSc1nc2ccccc2[nH]1)N1CCN(S(=O)(=O)c2ccc(Cl)cc2)CC1,active: 35.5 µM,
CS(=O)(=O)c1ccc(N)cc1,active: 44.7 µM,
CCN(CC)CCCNC(=O)c1cc2nc(-c3ccccc3)cc(C(F)(F)F)n2n1,"inconclusive: 2 µM [inhibitor, partial curve, poor fit]",
O=C(NCc1cccs1)c1cnc(Cl)c(Cl)c1,,inactive: 30.1% [at 102 µM]
CCOCCCNC(=O)C1CCC(CNS(=O)(=O)c2ccc(OC)cc2)CC1 (centres undefined),,inactive: -31.8% [at 102 µM]
O=C(CCC1N=C2c3ccccc3N=C(SCc3cccc(Cl)c3)N2C1=O)NCc1cccs1 (centres undefined),,inactive: 3.27%
COc1ccc(CNC(=O)CCN2C(=O)c3ccncc3C2=O)cc1OC,,inactive: -24.7% [at 12.7 µM]
CCC(=O)Nc1cccc(-c2cn3c(C)csc3n2)c1,,inactive: -4.93%
CSCC[C@H](NC(=O)N1CCn2c1nc1ccccc12)C(=O)N[C@@H](C(=O)O)c1ccccc1,,inactive: 6.14% [at 12.7 µM]
Cc1cc(C)n(-c2cc(-n3nc(C)cc3C)ncn2)n1,"inconclusive: 28.2 µM [inhibitor, partial curve, poor fit]",
CCN1C(=O)CC(c2ccco2)Sc2ccccc21 (centres undefined),active: 50.1 µM,
C=CCn1c(SCC(=O)NC2CCS(=O)(=O)C2)nc2scc(C3CC3)c2c1=O (centres undefined),"inconclusive: 89.1 µM [inhibitor, single point]",
CC(=O)c1cccc(NC(=O)/C(=C\c2cccnc2)NC(=O)c2ccco2)c1,,inactive: -36.9% [at 102 µM]
COc1ccc2c(C)c(CCC(=O)NC3CC3)c(=O)oc2c1C,"inconclusive: 89.1 µM [inhibitor, single point]",

Compound,Potency,"activity, negative = inhibition"
CCOCc1nnc(NC(=O)c2cc(C(=O)OC)cc([N+](=O)[O-])c2)s1,active: 50.1 µM,
COc1cc(OC)cc(C(=O)N2CCN(Cc3ccc4c(c3)OCO4)CC2)c1,active: 11.2 µM,
OCCNCCCOc1ccc(Cl)cc1Br,,inactive: -0.806%
CCn1c(=S)[nH]c2cc(C(=O)OC)ccc2c1=O,"inconclusive: 28.2 µM [inhibitor, single point]",
COc1ccc(S(=O)(=O)N2CCCCCC2)cc1C(=O)N(C)Cc1ccc(Cl)cc1Cl,"inconclusive: 89.1 µM [inhibitor, partial curve, poor fit]",
Cc1ccc(C(=O)O)cc1-n1c(C)cc(C=O)c1C,"inconclusive: 50.1 µM [inhibitor, partial curve]",
O=C(O)c1ccc2c(c1)C(=O)N(Cc1ccccc1)C2=O,,inactive: -15%
C[C@@H]1CC2OC(=O)[C@@]3(C)C(=O)CC[C@@](C)(C23)[C@@]1(O)CCc1ccoc1 (some centres undefined),,inactive: 17.3% [at 102 µM]
CCOc1ccccc1NC(=O)N1CCN(Cc2cc(=O)n3nc(-c4ccc(C)cc4)sc3n2)CC1,,inactive: 19%
c1ccc(CCNc2ccnc3cc4ccccc4cc23)cc1,,inactive: -43%
CCc1nnc(NS(=O)(=O)c2ccc(NC(=S)NC(=O)/C=C/c3cccs3)cc2)s1,active: 44.7 µM,
O=C(CN1C(=O)NC2(CCCCC2)C1=O)N1CCN(S(=O)(=O)/C=C/c2ccccc2)CC1,"inconclusive: 89.1 µM [inhibitor, partial curve, poor fit]",
CSCCC(NC(=O)C1CCC(C)CC1)C(=O)NCc1ccco1 (centres undefined),"inconclusive: 89.1 µM [inhibitor, single point]",
CSc1ccccc1NC(=O)c1cnccn1,active: 25.1 µM,
COc1ccc(OCC(=O)N2CCc3c([nH]c4ccccc34)C2c2ccccn2)cc1 (centres undefined),"inconclusive: 39.8 µM [inhibitor, partial curve]",
COc1ccc(S(=O)(=O)N2CCC(C(=O)NCc3ccncc3)CC2)cc1,,inactive: -12.4% [at 102 µM]
CSc1ccc(CNc2nc3ccccc3n3cnnc23)cc1,,inactive: 26.1% [at 102 µM]
O=C(/C=C/c1ccccc1)NC(=S)Nc1cccnc1,"inconclusive: 79.4 µM [inhibitor, partial curve, poor fit]",
CCN(CC)C(=O)CN1CCN(Cc2ccc3c(c2)OCO3)CC1,"inconclusive: 1 µM [inhibitor, single point]",
CCc1ccc(-c2ccc3nnc(SCC(=O)Nc4cccc(C(C)=O)c4)n3n2)cc1,"inconclusive: 4.47 µM [inhibitor, single point]",
C/C(=N/NS(=O)(=O)c1ccccc1)c1c[nH]c2ccccc12,active: 22.4 µM,
COc1ccc2nc(NC3=NC(C(=O)Nc4ccc(C)cc4)CC(=O)N3)nc(C)c2c1 (centres undefined),"inconclusive: 7.08 µM [inhibitor, single point]",
CNc1oc(Cc2cccc3ccccc23)nc1C#N,"inconclusive: 0.794 µM [inhibitor, full curve, poor fit]",
CN(C)CCNC=C(C(=O)Nc1ccc(Cl)cc1Cl)C(=O)Nc1ccc(Cl)cc1Cl,,inactive: -0.122%
